We go through 1 substance from publication PMC7018998.

Assay [1] deals with ErbB3 (human) (UniProt P21860). Put plainly: two-colour single molecule co-localisation and tracking (TOCCSL, TIR microscopy); live CHO-ErbB2-ErbB3 cells treated with pertuzumab (PRT); no HRG; labels as for the homo- and heterodimerization experiments; room temperature.
Assay [2] deals with ErbB3 (human) (UniProt P21860). In words: two-colour single molecule co-localisation and tracking (TOCCSL, TIR microscopy); live CHO-ErbB2-ErbB3 cells; AF488-ErbB3-Fab and AF647-ErbB3-Fab for homodimers, AF488-ErbB2-Fab and AF647-ErbB3-Fab for heterodimers; with 200 ng/mL (25 nM) HRG, no pertuzumab; room temperature.
Assay [3] has as its target ErbB3 (human) (UniProt P21860). Put plainly: two-colour single molecule co-localisation and tracking (TOCCSL, TIR microscopy); live CHO-ErbB2-ErbB3 cells; AF488-ErbB3-Fab and AF647-ErbB3-Fab for homodimers, AF488-ErbB2-Fab and AF647-ErbB3-Fab for heterodimers; no HRG, no pertuzumab; room temperature.
Assay [4] deals with ErbB3 (human) (UniProt P21860). In words: two-colour single molecule co-localisation and tracking (TOCCSL, TIR microscopy); live CHO-ErbB3 cells (no ErbB2), labelled with AF488-ErbB3-Fab and AF647-ErbB3-Fab; in the presence of 200 ng/mL (25 nM) HRG; room temperature.
Assay [5] concerns the target ErbB3 (human) (UniProt P21860). In words: two-colour single molecule co-localisation and tracking (TOCCSL, TIR microscopy); live CHO-ErbB3 cells (no ErbB2) on fibronectin-coated coverglass, labelled with AF488-ErbB3-Fab and AF647-ErbB3-Fab; no HRG; room temperature; signals within 160 nm counted as co-localised; fractions corrected for labelling and for the diffusion of monomers and dimers.

For assay [6], the target named is ErbB3 (human) (UniProt P21860). In words: two-colour single molecule co-localisation (TOCCSL), global analysis of the homo- and heterodimerization experiments; CHO-ErbB2-ErbB3 cells; data of the separate ErbB3 homodimer and ErbB3/ErbB2 heterodimer experiments analysed together with a mathematical model of ErbB3 homodimers, ErbB3/ErbB2 heterodimers and ErbB3 monomers; with HRG.

For assay [7], the target named is ErbB3 (human) (UniProt P21860). Put plainly: two-colour single molecule co-localisation and tracking (TOCCSL, TIR microscopy); live CHO-ErbB3 cells (no ErbB2) on fibronectin-coated coverglass, labelled with AF488-ErbB3-Fab and AF647-ErbB3-Fab; no HRG; room temperature; signals within 160 nm counted as co-localised; fractions corrected for labelling and for the diffusion of monomers and dimers. This is another data set of the same source.

Sequence of ErbB3 (chain, as listed by the source): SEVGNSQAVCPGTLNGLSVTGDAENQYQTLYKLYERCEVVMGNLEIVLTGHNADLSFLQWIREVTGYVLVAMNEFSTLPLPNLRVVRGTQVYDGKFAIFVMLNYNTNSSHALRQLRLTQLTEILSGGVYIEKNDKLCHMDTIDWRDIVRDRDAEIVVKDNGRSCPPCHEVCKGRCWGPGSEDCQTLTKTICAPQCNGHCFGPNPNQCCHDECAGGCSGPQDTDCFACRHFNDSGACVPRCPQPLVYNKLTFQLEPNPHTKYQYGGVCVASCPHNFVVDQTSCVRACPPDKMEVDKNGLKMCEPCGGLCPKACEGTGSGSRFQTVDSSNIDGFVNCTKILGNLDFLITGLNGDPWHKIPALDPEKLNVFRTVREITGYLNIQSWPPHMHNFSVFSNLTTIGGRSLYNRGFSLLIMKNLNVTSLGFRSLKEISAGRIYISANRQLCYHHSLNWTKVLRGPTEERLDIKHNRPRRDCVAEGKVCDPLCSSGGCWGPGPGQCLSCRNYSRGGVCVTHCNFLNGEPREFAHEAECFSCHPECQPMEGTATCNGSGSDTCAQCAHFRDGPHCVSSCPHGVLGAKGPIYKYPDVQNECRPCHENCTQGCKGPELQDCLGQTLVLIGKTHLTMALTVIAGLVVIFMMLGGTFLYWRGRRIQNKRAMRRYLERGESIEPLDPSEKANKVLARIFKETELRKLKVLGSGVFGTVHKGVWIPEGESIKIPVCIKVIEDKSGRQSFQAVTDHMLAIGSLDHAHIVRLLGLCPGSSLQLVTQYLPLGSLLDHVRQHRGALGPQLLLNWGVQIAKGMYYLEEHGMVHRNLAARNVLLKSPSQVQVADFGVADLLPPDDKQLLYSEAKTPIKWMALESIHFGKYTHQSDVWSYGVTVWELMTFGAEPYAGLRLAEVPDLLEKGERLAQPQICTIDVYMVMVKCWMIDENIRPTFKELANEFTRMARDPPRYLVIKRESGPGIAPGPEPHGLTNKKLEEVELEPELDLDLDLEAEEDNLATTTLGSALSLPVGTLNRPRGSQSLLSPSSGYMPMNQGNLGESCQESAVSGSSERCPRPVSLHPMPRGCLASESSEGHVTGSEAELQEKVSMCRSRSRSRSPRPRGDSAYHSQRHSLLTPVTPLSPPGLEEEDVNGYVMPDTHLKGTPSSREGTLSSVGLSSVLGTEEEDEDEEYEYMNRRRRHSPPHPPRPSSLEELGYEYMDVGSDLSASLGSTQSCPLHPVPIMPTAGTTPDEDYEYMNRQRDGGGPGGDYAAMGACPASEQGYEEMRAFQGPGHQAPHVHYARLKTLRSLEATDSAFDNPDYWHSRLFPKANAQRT

On to “ErbB3 (a stretch of the chain, sequence left out) (receptor; other documents disagree on this pair)”, for which the percent of ErbB3 in homodimers in assay [1] is 26%; in assay [2] it was 90%; in assay [3], 70%; in assay [4], 80%; in assay [5] it was 10%; in assay [7] it was 23%. The substance also returned a percent of ErbB3 in homodimers (global analysis) in assay [6] of 45%.
